Experimental data published in article PMC7904734, “ORP/Osh mediate cross-talk between ER-plasma membrane contact site components and plasma membrane SNAREs” (Cellular and Molecular Life Sciences: CMLS, 2020).
Where two headings read alike, the source gives them in different places. No constants are given. Whether binding was seen depends on the method and setting. In cells and extracts the contact can be indirect. Some entries that bind do so weakly or less than the wild type. For some of these results: Sequences can lack the tags named with a protein. Values belong to the molecule of their own block, whether it stands above or below them.

Protein sequences, listed by entry. Tags and fused reporters are not part of them. Lines headed by an entry give the natural chain unless they say otherwise; changes in a name come on top. Residues count along the entry.
UniProt P40357: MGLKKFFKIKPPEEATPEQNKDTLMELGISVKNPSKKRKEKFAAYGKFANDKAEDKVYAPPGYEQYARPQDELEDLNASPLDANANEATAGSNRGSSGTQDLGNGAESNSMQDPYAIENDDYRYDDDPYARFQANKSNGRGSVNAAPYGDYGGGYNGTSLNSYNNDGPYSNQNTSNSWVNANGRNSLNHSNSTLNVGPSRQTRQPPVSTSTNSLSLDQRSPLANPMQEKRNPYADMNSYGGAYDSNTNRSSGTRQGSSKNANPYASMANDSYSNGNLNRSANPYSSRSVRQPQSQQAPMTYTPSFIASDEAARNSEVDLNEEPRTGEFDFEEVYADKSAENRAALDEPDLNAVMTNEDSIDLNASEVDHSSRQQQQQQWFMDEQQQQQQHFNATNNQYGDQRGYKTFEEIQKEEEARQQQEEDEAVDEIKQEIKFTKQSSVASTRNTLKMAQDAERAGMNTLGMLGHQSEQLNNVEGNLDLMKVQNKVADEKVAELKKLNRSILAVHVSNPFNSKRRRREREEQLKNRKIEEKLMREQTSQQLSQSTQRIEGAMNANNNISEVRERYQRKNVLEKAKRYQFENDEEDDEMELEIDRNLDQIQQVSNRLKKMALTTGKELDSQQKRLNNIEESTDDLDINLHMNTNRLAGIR
YFP(C)·Sec9p(1–420): residues 1-420 of P40357
YFP(C)·Sec9p(421–651): residues 421-651 of P40357
UniProt P35843: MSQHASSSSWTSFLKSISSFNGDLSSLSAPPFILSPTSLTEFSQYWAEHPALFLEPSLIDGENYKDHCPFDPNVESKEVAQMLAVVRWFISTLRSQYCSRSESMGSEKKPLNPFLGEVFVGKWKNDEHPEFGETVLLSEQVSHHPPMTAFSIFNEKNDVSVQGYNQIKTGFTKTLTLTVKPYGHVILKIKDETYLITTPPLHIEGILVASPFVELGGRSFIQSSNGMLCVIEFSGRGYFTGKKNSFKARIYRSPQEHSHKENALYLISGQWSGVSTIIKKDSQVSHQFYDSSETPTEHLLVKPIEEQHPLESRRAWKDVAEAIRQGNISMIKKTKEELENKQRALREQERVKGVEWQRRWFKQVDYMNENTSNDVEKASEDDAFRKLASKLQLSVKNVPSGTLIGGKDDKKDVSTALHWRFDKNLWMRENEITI

How the values were obtained:
[1] = target: YFP(C)·Sec9p (S. cerevisiae) (UniProt P40357); test: split reporter; BiFC of YFP(N) and YFP(C) fusions in living wild type yeast cells grown at 24 °C, fluorescence microscopy; also in exocytosis mutants other than sec9-4 and with OSH3 overexpression (signals enhanced)
[2] = target: YFP(C)·Sec9p (S. cerevisiae) (UniProt P40357); test: as above; remark: listed apart in the source
[3] = target: YFP(C)·Sec9p(421–651) (S. cerevisiae) (UniProt P40357); test: as above
[4] = target: YFP(C)·Sec9p(1–420) (S. cerevisiae) (UniProt P40357); test: as above
[5] = target: T1, YFP(C)·Scs2p (S. cerevisiae) (UniProt P40075); test: as above
T1 sequence: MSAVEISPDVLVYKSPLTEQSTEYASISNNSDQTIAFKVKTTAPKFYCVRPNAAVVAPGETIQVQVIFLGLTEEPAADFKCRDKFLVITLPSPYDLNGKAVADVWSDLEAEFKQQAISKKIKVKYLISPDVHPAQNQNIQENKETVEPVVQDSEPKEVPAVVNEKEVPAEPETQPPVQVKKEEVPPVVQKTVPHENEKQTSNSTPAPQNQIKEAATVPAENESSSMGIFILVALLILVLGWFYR

[6] = target: T1, YFP(C)·Scs2p (S. cerevisiae); test: split reporter; BiFC in living sec9-4 Δpep4 yeast cells (Y39) at the permissive temperature; Osh3p level restored
FLAG·VAPA = target: T2, FLAG·VAPA (UniProt Q9P0L0); test: co-IP; anti-FLAG M2 magnetic beads, lysates of mouse hippocampal neurons expressing FLAG·VAPA, scrambled shRNA control, DIV 7 and DIV 14; 50 mM Tris HCl pH 7.9, 150 mM NaCl, 1% NP-40; Western blot; ORP2 knock-down at DIV 14 largely without effect
T2 sequence: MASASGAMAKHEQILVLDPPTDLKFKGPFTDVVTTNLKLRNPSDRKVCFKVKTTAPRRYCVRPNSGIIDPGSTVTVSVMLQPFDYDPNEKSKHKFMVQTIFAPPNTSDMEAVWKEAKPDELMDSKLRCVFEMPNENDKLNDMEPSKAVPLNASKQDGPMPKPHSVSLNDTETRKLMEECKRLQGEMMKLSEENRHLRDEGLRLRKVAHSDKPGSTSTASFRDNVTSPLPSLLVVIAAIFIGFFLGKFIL

binding [1]: binds
Molecule: YFP(N)·Osh5p (from UniProt P35843 1-434)

binding [2]: binds | binding [3]: binds | binding [4]: no binding | binding [5]: binds | binding [6]: binds
B1: YFP(N)·Osh3p (protein, UniProt P38713 1-996)
chain: METIDIQNRSFVVRWVKCGRGDVINYQIKPLKKSIEVGIYKKLKSSVDDHASAVHIAPDTKTLLDYTTKSLLHKGSSSNIEEHHRRSSQHSHSSSNGSDNKRKERSYSSLSISGIQQQSQEIPLREKLSASGFTLVKRVGNVSGNTMVQGDLEVKDTDYYYAFILDNSSSKNAKKKILFNASVINGDNQSMISTRSTPPARPTALSRTSTQQDMLFRVGQGRYLQGYLLKKRRKRLQGFKKRFFTLDFRYGTLSYYLNDHNQTCRGEIVISLSSVSANKKDKIIIIDSGMEVWVLKATTKENWQSWVDALQTCFDDQFEDKDTSTLEENPDILDDDKEVINKSSPQDHDHLTPTATTKSALSHRQHTQKDMDDIYVPLPSESYATFSMNLRLIQQRLEQCKKDSLSYKPTTLHQRSEGLNGTHSSSSVFTNNRVSSFNHSSSGMTSSDSLASEEVPSNKTYIEHALYNQLADLEVFVSRFVTQGEVLFKDHQILCKKAKDTRVSLTSYLSENDEFFDAEEEISRGVIILPDTEDDINNIVEETPLLGKSDQNEFTKEVQLSGSEQIASSSVESYTTNDENHSRKHLKNRHKNRRRGHPHHQKTKSAQSSTETFTSKDLFALSYPKSVTRRNDIPEAAASPPSLLSFLRKNVGKDLSSIAMPVTSNEPISILQLISETFEYAPLLTKATQRPDPITFVSAFAISFLSIYRDKTRTLRKPFNPLLAETFELIREDMGFRLISEKVSHRPPVFAFFAEHLDWECSYTVTPSQKFWGKSIELNNEGILRLKFKTTGELFEWTQPTTILKNLIAGERYMEPVNEFEVHSSKGDKSHILFDKAGMFSGRSEGFKVSIIPPPSSNRKKETLAGKWTQSLANETTHETIWEVGDLVSNPKKKYGFTKFTANLNEITEIEKGNLPPTDSRLRPDIRAYEEGNVDKAEEWKLKLEQLQRERRNKGQDVEPKYFEKVSKNEWKYITGPKSYWERRKKHDWSDISQLW

B2: VAPA (endogenous, mouse neurons) (protein, UniProt Q9WV55 1-249)
chain: MASASGAMAKHEQILVLDPPSDLKFKGPFTDVVTTNLKLQNPSDRKVCFKVKTTAPRRYCVRPNSGIIDPGSIVTVSVMLQPFDYDPNEKSKHKFMVQTIFAPPNISDMEAVWKEAKPDELMDSKLRCVFEMPNENDKLNDMEPSKAVPLNASKQDGPLPKPHSVSLNDTETRKLMEECKRLQGEMMKLSEENRHLRDEGLRLRKVAHSDKPGSTSAVSFRDNVTSPLPSLLVVIAAIFIGFFLGKFIL
binding (FLAG·VAPA): binds
